Among all 310,000 compounds or so, about 2,200 (0.71%) showed an effect of 50% or more. Effects have a minus sign here. The list shows a part of the results.

56 molecules from paper PMC4336329 (PLoS ONE, 2015) can be followed below.

The target in the assay is human ether-à-go-go-related gene (hERG) potassium channel (human, UniProt Q12809). The assay can be described thus: primary screen, population patch clamp on CHO cells stably expressing hERG.
Chain of human ether-à-go-go-related gene (hERG) potassium channel (Q12809 whole entry, looked up): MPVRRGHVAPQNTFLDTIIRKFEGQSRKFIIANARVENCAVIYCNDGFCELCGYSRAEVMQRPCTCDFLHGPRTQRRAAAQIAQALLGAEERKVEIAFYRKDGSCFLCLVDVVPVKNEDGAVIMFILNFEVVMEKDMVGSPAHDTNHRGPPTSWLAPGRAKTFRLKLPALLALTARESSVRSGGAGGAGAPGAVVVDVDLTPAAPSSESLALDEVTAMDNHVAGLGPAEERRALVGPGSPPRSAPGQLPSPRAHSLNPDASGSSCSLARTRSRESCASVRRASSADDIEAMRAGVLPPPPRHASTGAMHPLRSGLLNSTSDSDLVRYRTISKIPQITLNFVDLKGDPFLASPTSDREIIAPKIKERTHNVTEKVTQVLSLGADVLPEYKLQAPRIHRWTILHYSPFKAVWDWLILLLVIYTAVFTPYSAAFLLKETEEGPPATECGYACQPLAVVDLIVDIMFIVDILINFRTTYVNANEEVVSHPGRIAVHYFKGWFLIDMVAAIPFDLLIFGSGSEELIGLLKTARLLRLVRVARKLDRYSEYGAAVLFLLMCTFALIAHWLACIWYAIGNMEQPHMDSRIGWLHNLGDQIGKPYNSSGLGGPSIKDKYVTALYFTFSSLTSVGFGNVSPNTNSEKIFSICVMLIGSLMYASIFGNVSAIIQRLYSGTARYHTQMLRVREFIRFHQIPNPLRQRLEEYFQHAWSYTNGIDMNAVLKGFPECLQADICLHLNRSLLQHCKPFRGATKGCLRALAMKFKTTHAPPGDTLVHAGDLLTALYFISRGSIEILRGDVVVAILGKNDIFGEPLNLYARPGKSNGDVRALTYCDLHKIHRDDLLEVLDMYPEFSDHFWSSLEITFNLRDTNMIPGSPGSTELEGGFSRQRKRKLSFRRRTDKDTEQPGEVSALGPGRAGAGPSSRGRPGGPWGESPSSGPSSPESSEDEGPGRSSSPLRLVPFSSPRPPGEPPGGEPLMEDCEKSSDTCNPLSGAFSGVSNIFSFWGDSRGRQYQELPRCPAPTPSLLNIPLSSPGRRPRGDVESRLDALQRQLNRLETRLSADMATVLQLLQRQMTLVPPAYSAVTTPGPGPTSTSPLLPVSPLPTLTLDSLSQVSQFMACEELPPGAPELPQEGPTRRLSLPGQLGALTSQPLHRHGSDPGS
As to `CCN(CC(=O)NCc1ccc(Cl)cc1)C(=O)CSc1ccc(F)cc1`, the “hERG current change (%, negative = inhibition) at 1uM” value is reported as -28.9%. In the case of `COc1ccc(N2CCN(C(=O)CCc3nnc4ccc(N5CCOCC5)nn34)CC2)cc1`, the “hERG current change (%, negative = inhibition) at 1uM” value is 14%.

As for `COc1ccc(/C=N/NC(=O)c2ccc3nc[nH]c3c2)cc1`, the “hERG current change (%, negative = inhibition) at 1uM” value is recorded as 15.4%. `CCN(CC)S(=O)(=O)c1ccc(O)c(C(=O)OCC(=O)N2c3ccccc3CC2C)c1` (centres unmarked): the “hERG current change (%, negative = inhibition) at 1uM” value stood at 6.19%. In the case of `Cc1cc(C)c2c(N)c(C(=O)NN)sc2n1`, the “hERG current change (%, negative = inhibition) at 1uM” value was 14.5%. `Cc1cccc(S(=O)(=O)NNC(=O)c2sc(C)nc2C)c1`: the “hERG current change (%, negative = inhibition) at 1uM” value was determined as 6.08%. As for `COc1ccc(N=C2NC(=O)CS2)c([N+](=O)[O-])c1`, the figure is 12%. As for `Cc1cccc(C(=O)N2CCCC(CCC(=O)N3CCN(c4ccccn4)CC3)C2)c1C` (centres unmarked), the “hERG current change (%, negative = inhibition) at 1uM” value was found to be 5.01%. For the molecule `CC(C)CCNC(=O)C1CCN(S(=O)(=O)c2ccc3c(c2)CC(C)N3C(=O)C2CCC2)CC1` (centres unmarked), the “hERG current change (%, negative = inhibition) at 1uM” value is listed as 3.47%.

For the molecule `Cc1nc2ccc([N+](=O)[O-])cc2s1`, the “hERG current change (%, negative = inhibition) at 1uM” value is on record as 15.3%. For `O=C(CCN1C(=O)c2ccccc2C1=O)OCn1nnc2ccccc2c1=O`, the “hERG current change (%, negative = inhibition) at 1uM” value was found to be 18.9%. To `CC(=O)N(C)C1(c2nnnn2CCOC(=O)Nc2ccc(Cl)cc2)CCCCC1` belongs -2.57%; to `CCOc1cccc(CN2CCC(N3CCC(C(=O)NCC4CCCO4)CC3)CC2)c1` (centres unmarked), 8.9%; to `CCO/N=C(\N)c1[nH]ncc1Br`, 7.38%.

Consider `COCCNc1nc(N)c([N+](=O)[O-])c(NCCO)n1`, for which the “hERG current change (%, negative = inhibition) at 1uM” value is reported as 9.03%. Take `CN(C)c1ccc(/C=N/Nc2nc3ccccc3o2)cc1`: the “hERG current change (%, negative = inhibition) at 1uM” value was 17.1%.

Regarding `O=c1c2ccccc2nc(/C=C/c2ccc(O)c(O)c2)n1-c1ccccc1`, the “hERG current change (%, negative = inhibition) at 1uM” value is -3.02%.

With `O=C(O)C(=O)O.OC(CNC1CCCc2ccccc21)COc1c(Cl)cccc1Cl` (centres unmarked), the “hERG current change (%, negative = inhibition) at 1uM” value is -10.5%.

For the molecule `COc1ccc(NC(=O)CSc2nnc(C3CC3)n2C)cc1S(=O)(=O)N1CCOCC1`, the “hERG current change (%, negative = inhibition) at 1uM” value was determined as 11.5%. As to `COc1ccc(NC(=O)CN2CCN(c3nc(-c4cccc(OC)c4)cs3)CC2)cc1`, the “hERG current change (%, negative = inhibition) at 1uM” value was found to be 2.86%.

`O=C(CNC(=O)c1ccc2ccccc2c1)OCC(=O)N1CCN(S(=O)(=O)c2ccc3ccccc3c2)CC1`: the “hERG current change (%, negative = inhibition) at 1uM” value is 31%.

Take `CN1/C(=C/C(=O)CSc2ccccc2C(=O)O)C(C)(C)c2ccccc21`: the “hERG current change (%, negative = inhibition) at 1uM” value was determined as 18%.

As to `CCOC(=O)C1=C(c2ccccc2)NC(=O)NC1c1ccsc1` (centres unmarked), the “hERG current change (%, negative = inhibition) at 1uM” value came to 20.4%. In the case of `Cn1c(Cc2ccccc2)nnc1SCCC(=O)Nc1ccccc1`, the “hERG current change (%, negative = inhibition) at 1uM” value worked out at 8.15%. In the case of `CC1(C)Oc2ccc(C(=O)N3CCOCC3)cc2N(CC(=O)N2CCOCC2)C1=O`, the “hERG current change (%, negative = inhibition) at 1uM” value was found to be 12.9%. Regarding `COc1ccccc1CCNC(=O)C(=O)NCC1OCCN1S(=O)(=O)c1ccc(C)cc1` (centres unmarked), the “hERG current change (%, negative = inhibition) at 1uM” value is on record as 10.2%. To `O=C(NC1CCN(Cc2ccccc2)CC1)C1CCN(c2nnc(-n3cccc3)s2)CC1` belongs -28.2%; to `Cc1ccc(-c2nn(Cc3ccccc3)cc2/C=C/C(=O)O)cc1`, 1.95%; to `CO[C@@]1(NC(=O)C2SC(=C(C(N)=O)C(=O)O)S2)C(=O)N2C(C(=O)O)=C(CSc3nnnn3C)CS[C@@H]21` (some centres unmarked), 12.4%. On to `CC(=O)NS(=O)(=O)c1ccc(NC(=O)CN2C(=O)C3C4C=CC(C4)C3C2=O)cc1` (centres unmarked), for which the “hERG current change (%, negative = inhibition) at 1uM” value is recorded as 8.74%. Turning to `COc1cccc(NC(=O)CC2Oc3ccccc3NC2=O)c1` (centres unmarked), the “hERG current change (%, negative = inhibition) at 1uM” value is listed as 9.29%.

For the molecule `O=C(NC1CCCC1)C(Cc1ccccc1)n1cccc1` (centres unmarked), the “hERG current change (%, negative = inhibition) at 1uM” value is reported as 8.73%. To `COc1cccc(NC(=O)CN(C)C(=O)c2cc(-c3ccco3)nc3ccccc23)c1` belongs -11.6%; to `O=c1[nH]c(=S)[nH]c2nc(-c3ccccc3)cnc12`, 16.9%; to `CCCC1Cc2c(sc3ncnc(N)c23)CO1` (centres unmarked), 6.79%. On to `COC(=O)c1ccc(C(=O)OC)c(NC(=O)CSc2cccc[n+]2[O-])c1`, for which the “hERG current change (%, negative = inhibition) at 1uM” value was 8.22%. As for `NC(=O)C1CCN(c2oc(-c3ccc(F)cc3)nc2S(=O)(=O)c2ccccc2)CC1`, the figure is 1.98%; as for `O=C(CSCc1cnn(-c2ccccc2)c1-n1cccc1)N1CCN(Cc2ccccc2)CC1`, -3.03%. To `CC(=O)N=C1SC2CS(=O)(=O)CC2N1c1c(Cl)cccc1Cl` (centres unmarked) belongs 1.8%; to `Cc1ccccc1NC(=O)C1CC(=O)n2ncnc2N1` (centres unmarked), 18.2%. `O=C(O)C(=O)O.c1ccc(-c2ccc(OCCCNC3CCCC3)cc2)cc1`: the “hERG current change (%, negative = inhibition) at 1uM” value was -54.9%. For the molecule `COc1cccc(NC(=O)N2CCCC2C(=O)NC2CC2)c1` (centres unmarked), the “hERG current change (%, negative = inhibition) at 1uM” value is reported as 0.311%.

As to `Cn1c(-c2cc3ccccc3oc2=O)nc2ccccc21`, the “hERG current change (%, negative = inhibition) at 1uM” value came out at 12.6%. On to `O=C(COc1ccccc1Br)c1ccc(O)cc1O`, for which the “hERG current change (%, negative = inhibition) at 1uM” value came out at 9.21%. Take `O=[N+]([O-])c1cccnc1S(=O)(=O)c1ccccc1`: the “hERG current change (%, negative = inhibition) at 1uM” value is listed as 15.6%. As to `COc1ccc(-c2nnc(SCC(=O)NCc3cccs3)n2C(C)C)cc1`, the “hERG current change (%, negative = inhibition) at 1uM” value is given as -9.21%.

For the molecule `c1ccc(Oc2ccc(-n3cnnn3)cc2)cc1`, the “hERG current change (%, negative = inhibition) at 1uM” value is on record as -0.369%. Regarding `O=C(CSc1cn(Cc2ccccc2)c2ccccc12)Nc1nccs1`, the “hERG current change (%, negative = inhibition) at 1uM” value came to 13.8%.

`Cc1cc(C)cc(NC2=NCCCS2)c1`: the “hERG current change (%, negative = inhibition) at 1uM” value is listed as -6.06%. Turning to `O=C(NCC(=O)N1CCCCCCC1)c1ccccc1Br`, the “hERG current change (%, negative = inhibition) at 1uM” value was 13.8%. On to `COc1ccc(-n2ccnc2SCC(=O)Nc2ccccc2)cc1`, for which the “hERG current change (%, negative = inhibition) at 1uM” value is given as -4.79%. To `COc1cc(OC)c(C(=O)NNC(=O)CN(C)S(=O)(=O)c2ccc(Cl)cc2)cc1OC` belongs -3.03%; to `CCC(CC)C(=O)Nc1ccc(C)c(O)c1`, 5.34%. As for `COc1ccc(S(=O)(=O)N2CCOC2CNC(=O)C(=O)NCc2ccco2)cc1C` (centres unmarked), the “hERG current change (%, negative = inhibition) at 1uM” value is listed as 8.16%. As to `Cc1c(NC(=O)c2c(N)sc3c2CCCC3)c(=O)n(-c2ccccc2)n1C`, the “hERG current change (%, negative = inhibition) at 1uM” value is recorded as -8.17%.

Turning to `COc1ccc(C2NC(=O)NC(C)=C2C(=O)OC2CCCCC2)cc1OC` (centres unmarked), the “hERG current change (%, negative = inhibition) at 1uM” value came out at 10.5%.
